Results: PubChem BioAssay AID1347073 (National Center for Advancing Translational Sciences (NCATS), 2019)
Hit rate of the full screen: of about 45,000 compounds, about 200 (0.44%) were called active. Another 7% or so got no clear call; they are omitted. Calls follow the shape of the dose curve; as a rule, active = well fitted activation curve with a large enough effect; inconclusive = small, poorly fitted or top-dose-only effect; inactive = no such curve, though single readings can be large or run the other way. The list shows a part of the results.

test: qHTS of TDP-43 Inhibitors: NCGC Sytravon Library Screen; conditions: yeast TDP-43 toxicity rescue, BacTiter-Glo growth, 24 h; series mostly up to 46.1 µM; growth rescue (activation): at the top concentration; also: 0% is about no effect; nearly all actives have a fitted effect of over 55% in size
In short: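 TDP-43-expressing yeast, pregrown in raffinose, seeded at OD600 0.02 in galactose medium with compound for 24 hr at 30 deg C. Growth read by BacTiter-Glo luminescence, so rescue of toxicity appears as activation.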

| SMILES | growth rescue (activation) |
| --- | --- |
| Cc1c(C(=O)NCc2ccco2)cccc1[N+](=O)[O-] | inactive: 8.95% |
| Oc1ccc(/C=N/Nc2ccnc3cc(Cl)ccc23)c(O)c1O | inactive: 13.9% |
| COc1ccc(OCC(=O)NC2CCCc3ccccc32)cc1 (stereo unspecified) | inactive: -8.8% |
| CCN1CCN(Cc2ccc(NC(=O)Nc3cccs3)cc2)CC1 | inactive: -3.27% |
| COc1ccc(/C=C/C(=O)NC(=S)N2CCSCC2)cc1 | inactive: 0.403% |
| CC1Cc2ccccc2N1C(=O)Cn1cc([N+](=O)[O-])ccc1=O (stereo unspecified) | inactive: 21.2% |
| O=C(COC(=O)CCc1ccc(S(=O)(=O)N2CCOCC2)cc1)NCc1ccccc1 | inactive: 16.8% |
| O=C(NCCc1ccccc1)C1CCCN1S(=O)(=O)c1ccccc1 (stereo unspecified) | inactive: 14.1% |
| CC1=NOC(=O)/C1=C\c1ccc(-c2ccc(Br)cc2C(=O)O)o1 | inactive: 16.4% |
| Cc1ccc(-n2cc(CNCCc3cscn3)c(-c3ccc(F)cc3)n2)cc1 | inactive: -19.6% |
| Cc1cc(C)c2nc(C)cc(N/N=C/c3ccc(O)cc3)c2c1 | inactive: 0.533% |
| O=C(c1ccc2ccccc2c1)C1CCCN(C(=O)CN2C(=O)CSC2=O)C1 (stereo unspecified) | inactive: -6.63% |
| NC(=O)c1nsc(C(=O)N(Cc2ccco2)C(C(=O)NCc2ccccc2)c2ccc(O)cc2)c1N (stereo unspecified) | inactive: 9.35% |
| COc1ccc(NC(=O)c2ccc(-c3ccc([N+](=O)[O-])cc3)o2)cc1 | inactive: 8.06% |
| CC(=O)c1cccc(N(C(=O)CS(=O)CC(=O)Nc2ccc(F)cc2)C(C(=O)NC2CCCCC2)c2ccc(C)o2)c1 (stereo unspecified) | inactive: -9.28% |
| COc1ccccc1-c1ccc(/C=C2/C=C(C)OC2=O)o1 | inactive: 11.5% |
| COc1cc2c(cc1OC)CN(C(=O)Nc1ccccc1)CC2 | inactive: 15.2% |
| Cc1ccccc1OCC(O)CNC1CCC(NCC(O)COc2ccccc2C)CC1 (stereo unspecified) | inactive: -7.34% |
| COc1ccccc1Nc1ncnc2c1c(C)c(C)n2CCO | inactive: -1.48% |
| Cc1cccc(N2CCN(S(=O)(=O)c3c(C)nc4scc(C)n4c3=O)CC2)c1C | inactive: -5.77% |
| Cc1nn(CCC#N)c(NC(=O)c2ccccc2)c1P(=O)(Nc1ccc(Br)cc1)N1CCOCC1 (stereo unspecified) | inactive: 10.3% |
| OC[C@@H]1CN(Cc2ccncc2)C[C@H](n2cnc3c(NC4CCCC4)ncnc32)O1 | inactive: 2.92% |

| SMILES | growth rescue (activation) |
| --- | --- |
| COc1cc(/C=N/N=C2/C(=O)Nc3ccccc32)ccc1O | inactive: -0.29% |
| CCCCn1c(=N)n(CCCOc2ccc(F)cc2)c2ccccc21 | inactive: 8.08% |
| Cc1cc(C)cc(C(O)c2ncc(-c3ccc4ccccc4c3)[nH]2)c1 (stereo unspecified) | inactive: 1% |
| CCOC(=O)C1(CC2CCCCO2)CCN(C(=O)Nc2ccc(SC)cc2)CC1 (stereo unspecified) | inactive: 9.58% |
| COc1ccccc1CNC(=O)N1CCN(S(=O)(=O)c2ccc(Cl)cc2)CC1 | inactive: 3.47% |
| O=C(Cn1nnc2ccccc2c1=O)Nc1cccc(S(=O)(=O)N2CCOCC2)c1 | inactive: 0.175% |
| COc1ccc(CCn2c(-c3ccc(F)cc3)nc3c(c(=O)c4ccccc4n3C)c2=O)cc1OC | inactive: 0.267% |
| COCCCNC(=S)N1CCN(C(=O)c2ccco2)CC1 | inactive: 22.6% |
| CN(C(=O)Cn1nnc2ccccc2c1=O)C1CCCCC1 | inactive: -33.9% |
| Cc1ccc(NC(=O)C2CCN(C(=O)c3ccco3)CC2)cc1C | inactive: -9.67% |
| COc1ccccc1-n1cnnc1SCC(=O)Nc1ccccc1 | inactive: -9.66% |
| Cc1cc(OCC(=O)Nc2c(C)n(C)n(-c3ccccc3)c2=O)ccc1[N+](=O)[O-] | inactive: 7.41% |
| CCC(C)/C(C)=N/NC(=O)CSc1nc2ccccc2[nH]1 (stereo unspecified) | inactive: -1.88% |
| CCC(=O)N1C(=O)CCN(C(C)=O)c2ccccc21 | inactive: -18.1% |
| Cc1ccccc1C(=O)N1CCN(c2ccc(NC(=O)c3ccccc3[N+](=O)[O-])cc2)CC1 | inactive: 2.29% |
| COc1ccccc1NC(=O)CCCc1c[nH]c2ccccc12 | inactive: 27.8% |
| COc1ccc(/C=N\n2nnc3ccccc32)cc1 | inactive: 12.3% |
| Cc1ccc(NC(=O)c2ccc(C(C)(C)C)cc2)cc1[N+](=O)[O-] | inactive: 6.16% |
| COc1ccc(C(=O)Nc2ccc(N3CCC(C)CC3)cc2)cc1Br | inactive: 5.41% |
| O=C(NCc1ccccc1)C(c1cccnc1)N(C(=O)c1csnn1)c1ccccc1 (stereo unspecified) | inactive: 7.49% |
| CCN(CC)S(=O)(=O)c1ccc(N/N=C(\C)c2ccncc2)c([N+](=O)[O-])c1 | inactive: 2.96% |
| CCc1nc2c(OCC(=O)C(C)(C)C)cccn2c1N(C)C(=O)C1CC1 | inactive: -2.57% |

| SMILES | growth rescue (activation) |
| --- | --- |
| CC1(C(=O)NS(=O)(=O)c2ccc(F)cc2F)CCN1C(=O)CCc1ccccc1 (stereo unspecified) | inactive: -0.502% |
| COc1ccc(/C=C/C(=O)NC2CCN(Cc3ccccc3)CC2)cc1OC | inactive: 5.14% |
| C/C(=N\Nc1nc2ccc(Cl)cc2o1)c1ccccc1 | inactive: 15.2% |
| Cn1cccc1Cc1nnc(SCC(=O)NCCc2ccccc2)n1C | inactive: 13.8% |
| Cc1oc2c(c(C)cc3oc(=O)c(CC(=O)NCCC(=O)O)c(C)c32)c1C | inactive: -17.4% |
| O=C(Nc1ccc(O)c(-c2nc3ccccc3o2)c1)C1(c2ccc(Cl)cc2)CCCC1 | inactive: 12% |
| CCc1sc(NC(=O)CCC(=O)O)nc1-c1cc2ccccc2oc1=O | inactive: 7.19% |
| COc1ccc(-n2nc(C(=O)NCC(=O)N(C)Cc3ccccc3)c3ccccc3c2=O)cc1OC | inactive: 27.4% |
| O=C(Cc1ccccc1F)Nc1cccc(S(=O)(=O)N2CCOCC2)c1 | inactive: -0.45% |
| CCNC(=S)Nc1ccc(S(=O)(=O)Nc2cc(C)nc(C)n2)cc1 | inactive: 4.89% |
| CCOc1ccc(S(=O)(=O)N2CCN(C(=O)c3cccnc3)CC2)cc1 | inactive: 15% |
| NC(=O)c1cc(S(=O)(=O)N2CCCC2)ccc1OCCOc1ccccc1F | inactive: -1.26% |
| CCOC(=O)C1=C(C)N=c2s/c(=C\c3ccc(O)c([N+](=O)[O-])c3)c(=O)n2C1c1ccccc1OC (stereo unspecified) | inactive: -3.45% |
| CCOc1ccc2cc(S(=O)(=O)n3ccnc3C)ccc2c1 | inactive: 4.2% |
| COc1ccc(N(CC(=O)NCc2ccco2)C(=O)CCC(=O)Nc2nccs2)c(OC)c1 | inactive: -11.8% |
| COc1ccc(-c2csc(/C=C/c3ccc4c(c3)OCO4)n2)cc1OC | inactive: -12.7% |
| O=C(NC(=S)Nc1nc(-c2cccc([N+](=O)[O-])c2)cs1)c1ccccc1Cl | inactive: -22.6% |
| COc1cccc(N2C(=O)CN(Cc3cc(OC)c(OC)c(OC)c3)C2=S)c1 | inactive: 2.56% |
| Cc1cc(C)cc(N(CCC#N)C(=O)CN2C(=O)NC3(CCCC3)C2=O)c1 | inactive: -3.93% |
| CC(C)(C)c1ccc(CC(=O)N2CCC2(C)C(=O)NS(=O)(=O)c2cccs2)cc1 (stereo unspecified) | inactive: -8.14% |
| CC(C)(C)S(=O)(=O)/C(C#N)=N/Nc1ccc(S(N)(=O)=O)cc1 | inactive: 8.08% |
| COc1cccc(C2NC(=O)CCC2[N+](=O)[O-])c1 (stereo unspecified) | inactive: -0.909% |
